Experimental data from PubChem BioAssay AID686979 (National Center for Advancing Translational Sciences (NCATS), 2013).
Screen size: about 420,000 compounds; about 50,000 (12%) were called active. This list was built around the results that the source calls inconclusive (neither active nor inactive); the mix of calls is not that of the screen. Calls come from the whole dose curve; as a rule, active = well fitted inhibition curve with a large enough effect; inconclusive = small, poorly fitted or top-dose-only effect; inactive = flat fitted curve, though single readings scatter. Potencies of inconclusive entries are left out as doubtful fits.

assay: qHTS for Inhibitors of human tyrosyl-DNA phosphodiesterase 1 (TDP1): qHTS in cells in presence of CPT; settings: chicken DT40 Tdp1-/-;hTDP1 cells + 20 nM CPT, ATP luminescence, 48 h; series mostly up to 46.2 µM; note: nearly all actives have a fitted effect of over 55% in size
Method in brief: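 Chicken DT40 Tdp1-/- cells complemented with human TDP1, 400 cells/well, exposed to compounds plus 20 nM camptothecin for at least 48 h at 37 C; viability read as ATP content by CellTiter-Glo luminescence.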
Potency is the fitted concentration of half-maximal effect; tags give direction and shape of the fitted curve.

SMILES | Potency
COC(=O)c1ccc(NC(=O)C2CC(=O)N(c3cc(C)ccc3C)C2)cc1 (configuration not stated) | inconclusive [inhibitor, single point]
CC1CN(C(=O)Cn2cc(S(=O)(=O)CC(=O)N3CCOCC3)c3ccccc32)CC(C)O1 (configuration not stated) | inactive
COc1ccc(/C=N/n2c(-c3cc(C)[nH]n3)n[nH]c2=S)cc1 | inactive
COC(=O)c1ccccc1S(=O)(=O)N1CCC(C(=O)NCCC2=CCCCC2)CC1 | inconclusive [inhibitor, single point]
COc1ccc(CCN2CC(O)=C(c3nc4ccccc4c(=O)[nH]3)C2=N)cc1OC | inconclusive [inhibitor, single point]
COc1cccc(/C=N/N=C(\N)c2nonc2N)c1O | active: 0.0065 µM
CCCCSc1nc(N)nc2c1ncn2C1OC(CO)C(O)C1O (configuration not stated) | inconclusive [inhibitor, full curve, poor fit]
Cc1ccc(CN2CC(=O)N3[C@H]4c5ccccc5OC[C@@H]4[C@H](c4ccccc4)[C@]3(C)C2=O)cc1 | inconclusive [inhibitor, single point]
COc1ccc(Br)c(C(=O)Nc2cccc(S(=O)(=O)N3CCOCC3)c2)c1 | inactive
O=C(c1cc2nc(-c3cccs3)cc(C(F)(F)Cl)n2n1)N1CCCc2ccccc21 | inconclusive [inhibitor, single point]
Cc1[nH]n(C(N)=S)c(=O)c1N=Nc1cc(-c2ccc(Br)cc2)[nH]n1 | active: 3.26 µM
CCCn1c2c(c(O)c(C(=O)NCCCN(CC)CC)c1=O)CCCC2 | inconclusive [inhibitor, full curve, poor fit]
COC(=O)c1c(NC(=O)COc2c(C)ccc(C)c2C)sc2c1CCC(C)C2 (configuration not stated) | inactive
CCCSc1nc2c(c(=O)[nH]1)C(c1ccc(F)cc1F)CC(=O)N2 (configuration not stated) | inconclusive [inhibitor, single point]
COc1cccc(N2CCN(C(=O)C3CCCN(c4ncnc5c4nc4n5CCCCC4)C3)CC2)c1 (configuration not stated) | active: 16.4 µM
CC(C)Cn1c(N)c(C(=O)CSc2nncs2)c(=O)n(C)c1=O | inconclusive [inhibitor, partial curve]
CCN(CC)c1cc2c(cc1F)c(=O)c(S(=O)(=O)c1ccc(C)cc1)cn2Cc1ccc(F)cc1 | inconclusive [inhibitor, full curve, poor fit]
COc1ccccc1NC(=O)C1=C(C)Nc2nc(-c3ccccc3)nn2C1c1ccccn1 (configuration not stated) | inactive
O=C(CNCC1(N2CCOCC2)CCCCC1)Nc1ccc(Cl)cc1 | inactive
CCC(C)(C)NC(=O)C(c1cccc(OC)c1)N(C(=O)c1ccn[nH]1)c1cccc(OC)c1 (configuration not stated) | inconclusive [inhibitor, partial curve]
O=C(NCc1ccc(Cl)cc1)c1cc(-c2cccs2)on1 | inactive
CC(=O)c1cccc(S(=O)(=O)N2CCCC(c3nc4c(nnn4Cc4cccc(Cl)c4)c(=O)[nH]3)C2)c1 (configuration not stated) | inconclusive [inhibitor, single point]
COc1ccc2cc3cc(C(=O)Nc4cc(OC)c(OC)c(OC)c4)oc3nc2c1 | inconclusive [inhibitor, full curve]
O=C(NCc1ccncc1)c1ccc(Oc2ccccc2)cc1 | active: 14.6 µM

SMILES | Potency
CCCN1CCN(c2ncnc3sc(C(=O)Nc4cccc(Cl)c4C)c(C)c23)CC1 | inconclusive [inhibitor, single point]
O=C(NCCc1ccc(Cl)cc1)c1nc(-c2cccc(F)c2)n2c1CCCCC2 | active: 18.4 µM
Cc1oc(-c2cccc(Cl)c2)nc1CN1CCC(C(=O)NCc2cccnc2)CC1 | inconclusive [inhibitor, single point]
O=C(O)C1CCCN1c1nc(C(F)(F)F)nc2ccccc12 (configuration not stated) | inactive
CC(C)NC(=O)NC(=O)COC(=O)c1c2c(nc3ccccc13)CCC2 | active: 9.2 µM
CC(=O)Nc1ccc(NC(=O)CSc2nc3[nH]ncc3c(=O)n2-c2ccccc2)cc1 | inactive
COC(=O)CSc1nnc(CCc2ccccc2)n1C | inactive
COc1ccc(C2CC(=O)c3cnc(NC(=O)c4ccccc4OC)nc3C2)c(OC)c1 (configuration not stated) | active: 16.4 µM
O=C(NCc1ccccc1Cl)c1ccc2nc([C@@H]3O[C@H](CO)[C@H](O)[C@H](O)[C@H]3O)[nH]c2c1 | inactive
CN(C)CCN(Cc1ccco1)c1ccccn1 | inactive
CC(C)c1ccccc1Oc1c(C(F)(F)F)oc2c(CN3CCN(C)CC3)c(O)ccc2c1=O | inactive
COc1ccc(-c2nnc(Nc3nc4c(OC)cccc4s3)o2)cc1 | active: 5.17 µM
CC(OC(=O)c1cnccn1)C(=O)c1ccccc1 (configuration not stated) | inactive
CCOC(=O)C1=C(C)NC2=C(C(=O)CC(c3cccs3)C2)C1c1cccs1 (configuration not stated) | inconclusive [inhibitor, single point]
CCOC(=O)c1c(C)c(C(=O)NCc2ccc(Cl)cc2)c(C)n1CC | inconclusive [inhibitor, single point]
CCC1CCc2nc3sc(C(=O)Nc4ccc(F)c(F)c4)c(N)c3cc2C1 (configuration not stated) | inactive
COC(=O)/C=c1/sc2nc3ccccc3n2c1=O | inconclusive [inhibitor, single point]
CCOc1ccc2oc(C(=O)OCC(=O)NC(=O)NC3CCCC3)c(C)c2c1 | inactive
Cc1ccc2c(c1)[C@H]1[C@H](CO2)[C@H](c2ccccc2)[C@]2(C)C(=O)Nc3cc(F)c(F)cc3C(=O)N12 | inconclusive [inhibitor, single point]
CC(=O)c1ccc(S(=O)(=O)NCC(=O)N2CCN(C/C=C/c3ccccc3)CC2)cc1 | inconclusive [inhibitor, single point]
CCOc1cc(/C=N/Nc2cc(C)nc3ccc(C)cc23)ccc1O | inconclusive [inhibitor, single point]
Cc1ccc(C(=O)NCCC(=O)N2CCCC2)cc1 | inactive
Fc1ccc(N2CCN(C(c3cccs3)c3nnnn3CCc3ccccc3)CC2)cc1 (configuration not stated) | inconclusive [inhibitor, single point]
CCCc1nnc(NC(=O)Cc2coc3ccc(C)cc23)s1 | inactive

SMILES | Potency
CC(C)CNc1ncnc2c1ncn2[C@H]1CN(Cc2cccs2)C[C@@H](CO)O1 | inconclusive [inhibitor, single point]
Brc1ccc(CN2CCc3nc(N4CCN(c5ncccn5)CC4)ncc3C2)cc1 | inconclusive [inhibitor, single point]
O=C(Cn1c(=O)n(CCc2ccccc2)c(=O)c2c3c(sc21)CCCC3)Nc1ccc(F)c(F)c1 | inconclusive [inhibitor, partial curve]
CCOc1ccccc1Nc1sc(C(=O)c2ccc(Cl)cc2)c(N)c1C(=O)NCCc1ccccc1 | active: 4.61 µM
Cc1cccc(NC(=O)CN(C)S(=O)(=O)c2cccc3cccnc23)c1C | inconclusive [inhibitor, single point]
Cc1cc(=O)oc(C)c1C(=O)NCc1c(F)cc(F)cc1F | inactive
CCCc1cc(=O)[nH]c(SCC(=O)Nc2oc(C)c3c(C)n[nH]c(=O)c23)n1 | inactive
Cc1ccc(S(=O)(=O)NC(C)(C)CN2CCC(Cc3ccccc3)CC2)cc1 | active: 16.4 µM
O=C(Nc1ccnc(-c2cccnc2)n1)c1cccs1 | inconclusive [inhibitor, single point]
CCn1c(NCc2cc(OC)c(OC)c(OC)c2)nc2ccccc21 | inconclusive [inhibitor, single point]
CC(/C=N/NC(=O)CN1CCN(Cc2ccc(Cl)cc2)CC1)=C\c1ccco1 | inconclusive [inhibitor, single point]
Cc1cc(OCC(=O)OCC(=O)N2c3ccccc3NC(=O)C2(C)C)ccc1Cl | inconclusive [inhibitor, single point]
Cc1ccc(-c2cccc(-c3cc(=O)oc4ccc(C(C)(C)C)cc34)c2)cc1 | inconclusive [inhibitor, single point]
COc1ccccc1N1CCN(C(=O)c2cc3c(=O)oc4ccc(C)cc4c3s2)CC1 | inactive
COc1ccc(OC)c(S(=O)(=O)Nc2cccc(-c3ccc(N4CCCCCC4)nn3)c2)c1 | inconclusive [inhibitor, single point]
NNC(=O)c1[nH]c2ccc(Cl)cc2c1-c1ccccc1 | inconclusive [inhibitor, single point]
CN(c1ccccc1)c1nc(-n2ccnc2)nc(-n2ccnc2)n1 | inactive
Cc1ccc(CNC(=O)c2cn(C)c3ccc(S(=O)(=O)N4CCOCC4)cc3c2=O)cc1 | inconclusive [inhibitor, single point]
Cc1ccc(C(=O)Nc2ccccc2-c2ccccc2)cc1S(=O)(=O)Nc1ccccc1 | inconclusive [inhibitor, single point]
CCc1ccc(Oc2cc(Cl)nc(N)n2)cc1 | inconclusive [inhibitor, full curve]
OC(COc1ccc2ccccc2c1)CN1CCCC1 (configuration not stated) | inactive
COc1ccc(NC(=O)Nc2cccnc2)cc1 | inactive
Cc1ccccc1C(=O)N1CCC(C(=O)Nc2ccc(C(C)C)cc2)CC1 | active: 7.31 µM
CC(=O)Nc1ccc(CNc2nc(NCCN(C)C)nc3cc(-c4ccccc4)sc23)cc1 | inconclusive [inhibitor, single point]
